29 molecules from the supplement of paper PMC12632987 can be followed below.

First the molecules themselves.
B1: GBRAP_45_5809 (protein)
chain: SEEYKEALEKALAKLEEALKQAKKLLEKDPEAFQPIVDKLEEIKKLLLENPEDLEAAEEAARLLREALKEALANPGTTAEFAELLLEALNYLEDVANLLK
B2: GBRAP_35_5516 (protein)
chain: STDDTIVEMLAATLEDAVLAVDDLPADTLATVVAQLARAAREVIEEEKDNIEGAKKLAKELEALLAAVRARGLDDPALQAAAAQLEEVLKLAREVAEKEK
B3: GBRAP_160_4025 (protein)
chain: SASVAAIVADFREDLELILAHADEISEATLAGAIRTAIGQAILDVHESPDLADLTREEVDALDAQADAVAARIAAGDPAERRAAAAELAAAVEAAIKKAA
B4: GBRAP_14_3859 (protein)
chain: MEALIKAVEETAEELKKFIKEVAPEHAEEIKKKVEELAKKIIKKIKEENLNIEEVEELVDEAAEELGKYLKEKGYVSDTEIAAIKAHLLSTMLLKLEEIE
B5: GBRAP_160_4230 (protein)
chain: SETVEKIVEITREELLEALELIEGETPEERKVVLDVTVGRILLEVDEIEEATEEMEEVVDEEVEEIAERLLAAEDATPEEKRAIVEEGVERLRERLEEVE
B6: GBRAP_11_2774 (protein)
chain: EKERLEKIAAKAKEAIALVDALIAAGTTDAALQAALAAALAELAKLVEALDDADLKALVAIAQEEWEAAQADPENAEAHLKRMRAALRVLEGQVLLLLEE
B7: GBRAP_11_2691 (protein)
chain: KKEKLKKGAELAEELAAVLAELLAVGVDDAELRARAKKLLEELLKLTKEHGDEGDKKLTEILKEEWEKALADPANAAAHVQNALAIARVLSGDYLLKIEE
B8: GBRAP_166_4963 (protein)
chain: SQEELVEELKALIEEKAEQAKTADPEEKLELLAEVAEAIREAREAGLSEEDLRELIRRTLELFSAVGLSLSTVEGALTILADLDEEEIDILEEAVKEVKA
B9: GBRAP_184_5238 (protein)
chain: KVLEVTVEAADAEELRAKLEAVFAEAEAAGARVRLDVLVEELTPEKVDVLTEEIARMAAAGLLDLVEVTSSTPIAEEHIDRLVAAADAAGVRLVIAEPDE
B10: GBRAP_11_2735 (protein)
chain: KKEKLKEVRELAEEAARAAAELLERGVDDEELRRRIEELLREIEEKVRELEDEFLRELVEIAREDFERSLADPENAEEHLARARAALRVLAGQVQLLIDE
B11: GBRAP_160_4483 (protein)
chain: SEKVEEAKEEVEEIIEEAVEAIKEAEPEDRPKIGRAYAGDIAMEARELGVVDDEEEEELLKLAEEGMEKIVKASEKGPEEMEKAAKELKKELKEFLKKKS
B12: GBRAP_160_4598 (protein)
chain: SEEVEKLIKEIDEIVEEAKKLIEGQTKEEQIAIIKVAMGEILLLLDLSEIVSDETEEKADEIADKLIKTIESNPDLTLEEIKALIDKAREEIKKAIKEDA
B13: GBRAP_160_4055 (protein)
chain: AEEKERLIADVDAAEAAILAVIDEEGAEAAAVMADGEFGAIIMEAAELPTASDELVDALEAIRDALVAGLRANAAASPAELKALVRAAAAAAKEAIKKHY
B14: GBRAP_128_3267 (protein)
chain: MNPEVVAYAEAFVEKLKAAGPEEAKKLADELMEKLKTMSLEEVEQFVEVLEKKLKELSVEKLEILADAARKHRDEFSPEKANLVAGLEVEALNEAVEKEE
B15: GBRAP_11_2850 (protein)
chain: EEEKLKKVAKLAEELEKLLKQLIAAGTTDAALIAEVKAALEKLLKAAKELGDENLIELAEAAKEDVAAAQADPATRAQHFNNALAFVQALLGEVLLKLEE
B16: GBRAP_11_2751 (protein)
chain: KKEKLKEIAKLAEEAAELVEKLIEEGYDDEELRKELEEKLKELRKKVKEYGDKSLEKLVEIAEENFKKALEDPENAEHYLKLALAALRVLEGQVLLLIEE
B17: GBRAP_78_6667 (protein)
chain: EVEELVDKALEALGRAERLALELPEDLRNELLDLLVDAASYLLESEEEGFDLELLKKALEELKKALELVEEANNPELEPLRKELKEAIKLLEKAIKAKEE
B18: GBRAP_184_5142 (protein)
chain: TLLRVYIEARTVEEALAGARAAFEAARAAGARLALYVDAEGLSVEEVAELARALRALAAELGLPDAQIVLHVEADEEEADEILKAADAAGVRAVIALEEE
B19: GBRAP_153_3945 (protein)
chain: MEEREEKLERALELIEKIKETGGDPELIREFARLVKELSEEDKLKVARELNRLSEELVYKIFKVLATEEGFSVEELLAMTTELDLEHEAAALEAIVEAQK
B20: GBRAP_184_5291 (protein)
chain: KVKRVVIEAETEEEALKQINAAAEEAKAEGVKLELDLFLKNVSVEGFKKIAEKLKKLKDEGIIKDAIVDLLDERSEEEVDKFVEIADKAGIRLVVALSDE
B21: GBRAP_78_6666 (protein)
chain: ELEKIIDETLELLTEVIRASKSLPPEVQEAVLDEAVEAATELEEIEEEGPNLEELEEAIKHLEKLLELLEKNKSPELEPLIEKLKKQIEKLKKAKEELEK
B22: GBRAP_80_6798 (protein)
chain: AEERLKEALKRLEELDPEIAKRVKEIVEKAKSLGVSDEDLAEFVEAIVKLAEKDKEKAREIVEELEEDLEEEVERGNTANATAVIRVHAGDALLEVEELE
B23: GBRAP_11_2739 (protein)
chain: EKEKLKKIAELAEKAARLVEELIREGVDNEELLKEAEKALEELLKAVKEYGDEFLQKLAELAKEDFEKALEDPENAEEYLRNAAATLRVLEGQVLLKIEE
B24: GBRAP_52_6162 (protein)
chain: MEERAREYAERVLAAVRAGDEEELERLLREIAETLSEEEIELLLEIIAERVPELSPEDAERVVEAAIRLEDLGIEAGKNPELLSYQLARVAAAAYARLQA
B25: GBRAP_160_4422 (protein)
chain: GELVEEVREILEEGRELVVELVEEGEREEALAAARVTAGEVLLTVDSDERVSEEAEEEIDEILDETIETLEENPDASPEEVREILEEAEEEILEVLEEGL
B26: GBRAP_11_2936 (protein)
chain: SEEKLKKALELAEKAAKLLDKILEAGKLDPKLAKEARKYIEEAAKLAKKLGLEEVLKDLELAAELVKEILKAGKLDPTKAAAARALVFDAAEELEEELEK
B27: GBRAP_45_5810 (protein)
chain: SEELEKTLKELREALEKALELLEKELKEHPEEFKPILELLEEAKKLLEEDPYSLEAARRIRELLEEALKLALDSEKASAELLELLLEAVNLAAELEELLR
B28: GBRAP_52_6207 (protein)
chain: MEERARELAERLLALMRAGDEEGARALAREIARTWDDEELRVFFEAFVELARKAAPEDHDLVFRLAELLAEELLEEGRDEVLADDFLNAVAAALYENEQA
B29: GBRAP_14_3814 (protein)
chain: KEELIKEIEKILEELKKELVELLGLDEKEVKKLVEKAEKEIKEAILNEENPLEKVEEIMEKLKKEVAELAKKLGEDVAAAARALVTDAEHEILELIEKYK

The full ranking holds about 4,500 sequences; the median of “median log2 fold change of GCK-ALFA target abundance (FLAG IP / Myc IP barcode read proportion)” is about 0.078, and the lowest 2% start at about -0.6. The list shows a part of the results.

Chain of GABARAP, O95166 (O95166 whole entry, the tested form may be a part): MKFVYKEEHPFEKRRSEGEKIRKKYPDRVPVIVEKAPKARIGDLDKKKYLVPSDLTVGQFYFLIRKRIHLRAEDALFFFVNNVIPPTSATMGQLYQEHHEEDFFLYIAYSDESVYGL

The assay addresses GABARAP, O95166. Kind of assay: median log2 fold change of GCK-ALFA target abundance (FLAG IP / Myc IP barcode read proportion) (log2 ratio); each designed protein is fused to an ALFA-tag nanobody in HEK293 cells to bring the named protein to FLAG-tagged glucokinase (GCK); Myc marks an untargeted standard; higher = target protein stabilised (more abundant). The note with it: target protein: 3xFLAG-MCP-GCK-ALFA reporter; HEK293 landing pad (RPLP). An outline of the steps: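 HEK293 landing-pad cells received a recombined binder library fused to the ALFA nanobody and were induced with 2 μg mL^−1 doxycycline, then transfected with a plasmid encoding a FLAG-tagged target and a Myc-tagged standard. Lysates were collected after 48 h for anti-FLAG and anti-Myc immunoprecipitation, and the circular RNA barcodes were reverse transcribed, amplified and sequenced. Target abundance for each binder is the median log2 ratio of FLAG to Myc barcode read proportions. Barcodes had to reach a proportion of at least 10^−7 in both replicates, each binder needed at least 3 barcodes per replicate, a pseudocount of 10^−6 was applied, and the two replicates were pooled.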
Take B1: the “median log2 fold change” value turned out to be 0.329.

Turning to B2, the “median log2 fold change” value is -0.336.

For B3, the “median log2 fold change” value came to 0.0208.

With B4, the “median log2 fold change” value stood at 0.181.

Turning to B5, the “median log2 fold change” value was -0.166.

B6: the “median log2 fold change” value was 0.131.

In the case of B7, the “median log2 fold change” value is -0.0665.

B8: the “median log2 fold change” value is -0.331.

Consider B9, for which the “median log2 fold change” value came to 0.168.

B10: the “median log2 fold change” value is -0.0478.

On to B11, for which the “median log2 fold change” value stood at 0.234.

Regarding B12, the “median log2 fold change” value worked out at 0.0945.

In the case of B13, the “median log2 fold change” value was 0.183.

Take B14: the “median log2 fold change” value is 0.119.

Take B15: the “median log2 fold change” value came to 0.272.

On to B16, for which the “median log2 fold change” value worked out at 0.0472.

Regarding B17, the “median log2 fold change” value was 0.104.

Turning to B18, the “median log2 fold change” value was -0.0391.

B19: the “median log2 fold change” value turned out to be 0.142.

Regarding B20, the “median log2 fold change” value is -0.0899.

Consider B21, for which the “median log2 fold change” value was 0.274.

As for B22, the “median log2 fold change” value is -0.212.

Turning to B23, the “median log2 fold change” value was 0.259.

Take B24: the “median log2 fold change” value was -0.0331.

B25: the “median log2 fold change” value was -0.215.

Regarding B26, the “median log2 fold change” value was -0.0697.

As for B27, the “median log2 fold change” value was 0.202.

With B28, the “median log2 fold change” value was -0.0123.

With B29, the “median log2 fold change” value amounted to 0.285.
